Measurements from PubChem BioAssay AID504332 (National Center for Advancing Translational Sciences (NCATS), 2011).
In all, about 350,000 compounds went through this assay and about 31,000 (8.9%) were called active. The inconclusive results got no clear call from the source; some entries with a clear call stand among them for comparison. Calls come from the whole dose curve; as a rule, active = well fitted inhibition curve with a large enough effect; inconclusive = small, poorly fitted or top-dose-only effect; inactive = no such curve, though single readings can be large or run the other way. A potency beside an inconclusive call is a rough fit, not a confirmed value.

Target: Histone-lysine N-methyltransferase EHMT2 (Homo sapiens) (UniProt Q96KQ7)
Chain of UniProt Q96KQ7 (Q96KQ7 whole entry, looked up): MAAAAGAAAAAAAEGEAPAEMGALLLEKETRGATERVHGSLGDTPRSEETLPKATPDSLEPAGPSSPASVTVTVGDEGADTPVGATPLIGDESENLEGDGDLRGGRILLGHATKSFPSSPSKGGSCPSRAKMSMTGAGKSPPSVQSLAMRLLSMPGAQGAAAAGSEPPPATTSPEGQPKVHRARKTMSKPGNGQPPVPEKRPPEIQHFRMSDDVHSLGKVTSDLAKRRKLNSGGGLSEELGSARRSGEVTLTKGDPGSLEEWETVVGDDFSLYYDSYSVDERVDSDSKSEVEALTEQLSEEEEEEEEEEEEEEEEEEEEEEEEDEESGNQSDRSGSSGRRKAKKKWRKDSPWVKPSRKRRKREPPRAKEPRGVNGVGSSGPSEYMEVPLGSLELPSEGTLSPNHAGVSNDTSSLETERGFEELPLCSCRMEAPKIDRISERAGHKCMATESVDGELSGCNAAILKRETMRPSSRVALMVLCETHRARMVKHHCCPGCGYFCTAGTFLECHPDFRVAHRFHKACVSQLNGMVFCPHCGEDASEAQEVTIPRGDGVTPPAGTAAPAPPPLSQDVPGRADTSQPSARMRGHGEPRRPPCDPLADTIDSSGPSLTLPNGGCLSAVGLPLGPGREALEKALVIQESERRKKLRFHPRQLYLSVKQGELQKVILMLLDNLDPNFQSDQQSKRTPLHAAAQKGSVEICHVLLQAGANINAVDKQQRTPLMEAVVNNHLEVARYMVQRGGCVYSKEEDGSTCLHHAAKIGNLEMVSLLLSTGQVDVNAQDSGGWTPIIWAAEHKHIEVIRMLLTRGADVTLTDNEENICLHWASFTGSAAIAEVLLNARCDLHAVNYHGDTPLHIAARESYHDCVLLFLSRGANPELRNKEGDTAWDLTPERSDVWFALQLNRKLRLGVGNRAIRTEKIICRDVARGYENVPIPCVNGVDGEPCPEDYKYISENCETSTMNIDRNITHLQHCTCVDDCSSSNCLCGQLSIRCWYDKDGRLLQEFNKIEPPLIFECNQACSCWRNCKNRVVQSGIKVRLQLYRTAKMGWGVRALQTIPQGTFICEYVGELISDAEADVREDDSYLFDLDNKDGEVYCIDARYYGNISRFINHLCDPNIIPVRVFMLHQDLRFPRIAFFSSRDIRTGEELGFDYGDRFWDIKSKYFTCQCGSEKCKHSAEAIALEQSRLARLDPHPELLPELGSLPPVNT
Assay: qHTS Assay for Inhibitors of Histone Lysine Methyltransferase G9a; note: nearly all actives have a fitted effect of over 75% in size
Details: G9a H3K9 monomethylation, AlphaScreen, 2 h; activity, negative = inhibition: at 59 µM (top of the series) unless noted
Method in brief: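 Quantitative HTS format: methyltransferase activity on a biotin-tagged H3K9 peptide is measured by AlphaScreen, using a rabbit anti-monomethyl-H3K9 antibody with streptavidin donor and anti-IgG acceptor beads. Final levels are 20 nM enzyme, 500 nM peptide, 20 uM SAM; 2 h RT.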
% is set by controls: 0 for no effect and ±100 for the full control effect; potency is the fitted concentration of half-maximal effect; tags give direction and shape of the fitted curve.

SMILES | Potency | activity, negative = inhibition
O=C1CC(c2ccccc2)Sc2nc(-c3ccccc3)c(-c3ccccc3)n21 (stereo not given) | inconclusive: 3.16 µM [inhibitor, full curve, poor fit] | 
CCN(CC)c1ccc(N=Nc2nn(C)c(C)c2[N+](=O)[O-])cc1 | inconclusive: 3.16 µM [inhibitor, full curve, poor fit] | 
O=c1c2ccccc2c(C=Nc2ccc(S(=O)(=O)Nc3ncccn3)cc2)c(O)n1-c1cccc(Cl)c1 | inconclusive: 79.4 µM [inhibitor, single point] | 
O=C(N/N=C\c1ccco1)c1cncc(Br)c1 |  | inactive: 43.4%
CC(NC(=O)CN(C)Cc1cccc(Cl)c1)c1ccccc1 (stereo not given) | active: 25.1 µM | 
COc1ccc(-n2cccc2/C=C2\C(=N)N3N=C(C(C)C)SC3=NC2=O)cc1 | inconclusive: 39.8 µM [inhibitor, full curve, poor fit] | 
CC(C)CN(C(=O)CN(C)S(=O)(=O)c1ccc(Cl)cc1)C1CCS(=O)(=O)C1 (stereo not given) | inconclusive: 56.2 µM [inhibitor, single point] | 
COc1n[nH]c(C(=O)Nc2nc3ccccc3s2)c1[N+](=O)[O-] | active: 14.1 µM | 
O=C(Cn1nnc(-c2cccc(C(F)(F)F)c2)n1)NC1CCCC1 | inconclusive: 89.1 µM [inhibitor, single point] | 
C(=N\N1CCN(Cc2ccccc2)CC1)/c1ccccc1 | inconclusive: 50.1 µM [inhibitor, partial curve, poor fit] | 
O=C(CSc1nc(=O)[nH]c2c1CCC2)Nc1cc(C(F)(F)F)ccc1Cl |  | inactive: -4.86%
Cc1cc(CN2CCN(CCC#N)CC2)c(O)c(C2(C)CCCCC2)c1 |  | inconclusive: -67% [inhibitor]
COc1ccc(C(=S)N2CCCC2)cc1 | inconclusive: 31.6 µM [inhibitor, single point] | 
CCOC(=O)c1cnn(-c2nc(OCC)cc(OCC)n2)c1C |  | inactive: 14.8%
CCOc1ccccc1C(=O)N1CCC(n2nnc3cc(C(F)(F)F)ccc32)CC1 | inconclusive: 44.7 µM [inhibitor, partial curve, poor fit] | 
COc1ccc(CNC(=O)c2ccccc2SCC(=O)N2CCCC2)cc1OC | active: 44.7 µM | 
O=C(NCCc1ccc(Cl)cc1)c1cnc2sc(N3CCCC3)nn2c1=O |  | inactive: 5.02%
CCOc1ccc(NC(=O)CN(C)CC(=O)Nc2cc(Cl)ccc2C#N)cc1OCC |  | inactive: 22.3% [at 102 µM]
O=c1oc2ccccc2c(N2CCC(c3ccccc3)CC2)c1[N+](=O)[O-] | inconclusive: 100 µM [inhibitor, single point] | 
Nc1nc(SCC(=O)N2N=C3/C(=C/c4ccco4)CCCC3C2c2ccco2)n[nH]1 (stereo not given) | inconclusive: 3.16 µM [inhibitor, single point] | 
O=C(O)c1ccc(COc2c(F)c(F)c(F)c(F)c2F)o1 | inconclusive: 28.2 µM [inhibitor, single point] | 
Cc1nnc2n(c1=O)C(CS(=O)(=O)c1ccc3ccccc3c1)CS2 (stereo not given) | inconclusive: 31.6 µM [inhibitor, partial curve] | 
CC(=O)n1c2c(c3ccccc31)OC(N)=C(C#N)C2c1ccc(C(C)C)cc1 (stereo not given) | inconclusive: 17.8 µM [inhibitor, single point] | 
COc1ccc(CN2CCN(Cc3ccc(Br)cc3)CC2)c(OC)c1OC | active: 2.24 µM | 

SMILES | Potency | activity, negative = inhibition
OCCNc1nc(Nc2cccc(O)c2)nc2ccccc12 | active: 70.8 µM | 
O=C(Nc1nncs1)c1ccc2c(c1)OCO2 | active: 50.1 µM | 
CCCCn1c(S(=O)(=O)O)nc2ccccc21 | inconclusive: 35.5 µM [inhibitor, single point] | 
Cc1ccc2nc(NC(=O)CSc3cc(C)[nH]c(=O)n3)sc2c1 | inconclusive: 3.98 µM [inhibitor, partial curve, poor fit] | 
Oc1ccccc1-c1nc2cnccn2c1Nc1ccc(Cl)cc1 | inconclusive: 31.6 µM [inhibitor, partial curve, poor fit] | 
CCOC(=O)c1c(C)[nH]c(C(=O)OCC(=O)Nc2cccnc2Cl)c1C | inconclusive: 50.1 µM [inhibitor, partial curve, poor fit] | 
CC(=O)c1ccc(NC(=O)C2CCN(S(=O)(=O)c3c(C)noc3/C=C/c3ccc(C)cc3)CC2)cc1 |  | inactive: 6.83%
COc1ccc(C(=O)CC(=O)C(=O)NCCc2cccc(C)c2)cc1 |  | inactive: -0.624%
CC1(C)Cc2c(sc(NC(=O)c3ccco3)c2C#N)CO1 |  | inactive: -26.6%
CCOc1ccc(CNC(=O)CCCn2c(=O)c3cccn3c3cccnc32)cc1 |  | inactive: 8%
CC(=O)Nc1ccc(S(=O)(=O)NC2(C(F)(F)F)C(=O)Nc3c2c(=O)[nH]c(=O)n3Cc2ccccc2)cc1 (stereo not given) | inconclusive: 89.1 µM [inhibitor, single point] | 
C/C(=N\NC(=O)c1cccnc1)c1ccc(OC2OCCOC2Oc2ccc(/C(C)=N/NC(=O)c3cccnc3)cc2)cc1 (stereo not given) |  | inactive: 26.7% [at 102 µM]
Cc1nnc(NC(=O)c2ccc(Br)cc2)s1 | inconclusive: 2 µM [inhibitor, full curve] | 
Cc1nnc(NC(=O)CSc2nnc(Cc3cccn3C)n2-c2ccccc2)s1 | inconclusive: 89.1 µM [inhibitor, single point] | 
COc1cccc(CC(=O)OCC(=O)Nc2c(C)nn(-c3ccccc3)c2C)c1 | inconclusive: 56.2 µM [inhibitor, partial curve] | 
CCN(CC)C(=S)S | inconclusive: 2.24 µM [inhibitor, partial curve, poor fit] | 
OC(COc1ccccc1)CN1CCN(CC(O)COc2ccccc2)CC1 (stereo not given) | inconclusive: 50.1 µM [inhibitor, partial curve, poor fit] | 
Cc1cc(OC(=O)c2ccc3ccccc3c2)c([N+](=O)[O-])c(=O)[nH]1 | active: 44.7 µM | 
COC(=O)c1sccc1NC(=O)CSCCc1ccccn1 | inconclusive: 89.1 µM [inhibitor, partial curve, poor fit] | 
CC(C)CC(C(=O)NC(C)(C)C)N(Cc1ccccc1Cl)C(=O)c1snc(C(N)=O)c1N (stereo not given) |  | inactive: 0.34% [at 102 µM]
COc1cc([N+](=O)[O-])ccc1NC(=O)NNC(=O)c1sccc1C | active: 70.8 µM | 
COC(=O)c1c(NC(=O)CCCOc2ccc(C)cc2)sc2c1CCCC2 | active: 14.1 µM | 
CN1CCC(N(C)S(=O)(=O)c2ccc(NC(=O)c3cccc(C#N)c3)cc2)CC1 | inconclusive: 39.8 µM [inhibitor, single point] | 
COc1ccc(-n2nc3c(=O)[nH][nH]c3cc2=O)cc1 | inconclusive: 17.8 µM [inhibitor, partial curve, poor fit] | 

SMILES | Potency | activity, negative = inhibition
CCOC(=O)c1cc(-c2ccco2)nc2c1c(C)nn2-c1ccccc1 | inconclusive: 8.91 µM [inhibitor, partial curve, poor fit] | 
C=CCNc1nc(C(=O)OCC(=O)Nc2c(Cl)cccc2C(F)(F)F)cs1 | inconclusive: 44.7 µM [inhibitor, partial curve] | 
COc1ccccc1N1CCN(S(=O)(=O)c2cccs2)CC1 |  | inactive: 1.73%
CC1CCc2c(sc3nc(SCC(=O)NCc4ccco4)nc(N)c23)C1 (stereo not given) | inconclusive: 44.7 µM [inhibitor, partial curve, poor fit] | 
Cc1ccc(-n2c(SCC(=O)N3Cc4ccccc4CC3C(=O)O)nnc2-c2cccnc2)c(C)c1 (stereo not given) | active: 44.7 µM | 
CCOC(=O)c1cc(-c2ccccc2)sc1NC(=O)CC | active: 56.2 µM | 
COc1ccc(C2C(C(C)=O)=C(O)C(=O)N2c2ccc(C)cc2)cc1 (stereo not given) | inconclusive: 17.8 µM [inhibitor, partial curve, poor fit] | 
S=c1[nH]nc(CSc2nc3ccccc3s2)n1Cc1ccccc1 | active: 3.16 µM | 
COc1cc(OC)c(NC(=O)Cn2cccc2)cc1Cl | inconclusive: 50.1 µM [inhibitor, partial curve] | 
N#CC(C#N)=NNc1ccc(S(=O)(=O)N2CCCCC2)cc1 | active: 10 µM | 
COc1ccc2oc(=O)c(-c3cn4ccc(C)cc4n3)cc2c1 | inconclusive: 35.5 µM [inhibitor, partial curve, poor fit] | 
S=c1[nH]c(-c2ccccc2)cn1/N=C/c1ccncc1 | active: 1.58 µM | 
CC(C)(C)c1ccc(C(=O)N2CCC(C(=O)NCc3ccco3)CC2)cc1 | inconclusive: 28.2 µM [inhibitor, single point] | 
C=CCc1cc(/C=N/n2cnnc2)cc(OCC)c1O | inconclusive: 70.8 µM [inhibitor, single point] | 
CC(C)(C)C1=Nn2c(nnc2-c2ccco2)SC1 | inconclusive: 31.6 µM [inhibitor, single point] | 
O=C(Nc1cccnc1)c1cc(-c2ccc(Cl)cc2Cl)on1 |  | inactive: -10.9% [at 102 µM]
COc1ccccc1Nc1ccc(C(=O)O)cc1[N+](=O)[O-] | inconclusive: 89.1 µM [inhibitor, single point] | 
C/C(=N\Nc1nncc2ccccc12)c1ccc(C(C)(C)C)cc1 |  | inactive: -9.52% [at 2.33 µM]
Cc1cccc(Nc2c(-c3ccc(O)cc3)nc3ncccn23)c1 | inconclusive: 39.8 µM [inhibitor, partial curve, poor fit] | 
Cc1nnc(SC(=O)N2c3ccccc3Sc3ccccc32)s1 | inconclusive: 31.6 µM [inhibitor, single point] | 
COc1ccc(/C=C/C(=O)NCC(=O)N=Nc2c(O)[nH]c3ccc([N+](=O)[O-])cc23)cc1 | inconclusive: 70.8 µM [inhibitor, single point] | 
COc1cc2nc(=S)n(CCCN3CCOCC3)c(N)c2cc1OC | inconclusive: 56.2 µM [inhibitor, partial curve] | 
